# Data from article PMC5700166.
# Only a part is listed here, and it is no random draw. The list includes weakly bound sequences.
# Legend:
# Assay in all cases: protein-binding microarray (PBM)
# Details in all cases: PBM: ~300 nM protein, 6 mM HEPES pH 7.8, 80 mM KCl, 0.5 mM EDTA, 0.5 mM EGTA, 6% glycerol, 35 ng/ul poly-dIdC, 1% milk, 1 h, room temperature; Ap Aiptasia and Nv Nematostella (sea anemones) / Co Capsaspora / Aq Amphimedon (sponge) / Dm Drosophila / Hu human; RHD is the Rel homology domain; high values mean tight binding; most listed sequences are background and not binding sites; double strand, one strand shown
# GST-Aq-NF-kB = target: T1, GST-Aq-NF-kB (UniProt A9Y5G7)
# T1 sequence: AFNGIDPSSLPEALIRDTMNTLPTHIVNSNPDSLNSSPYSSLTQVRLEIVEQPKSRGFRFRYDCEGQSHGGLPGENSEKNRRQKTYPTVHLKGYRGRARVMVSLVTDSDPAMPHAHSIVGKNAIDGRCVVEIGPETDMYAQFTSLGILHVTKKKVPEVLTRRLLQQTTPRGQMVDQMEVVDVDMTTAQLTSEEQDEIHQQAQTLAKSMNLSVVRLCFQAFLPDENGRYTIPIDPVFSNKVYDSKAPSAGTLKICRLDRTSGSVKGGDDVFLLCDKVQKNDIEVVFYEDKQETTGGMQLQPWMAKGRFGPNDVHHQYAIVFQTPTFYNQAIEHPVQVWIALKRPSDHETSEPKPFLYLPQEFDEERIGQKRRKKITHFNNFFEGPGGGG
# GST-Ap-NF-kB RHD = target: T2, GST-Ap-NF-kB RHD (UniProt A0A913YAJ5)
# T2 sequence: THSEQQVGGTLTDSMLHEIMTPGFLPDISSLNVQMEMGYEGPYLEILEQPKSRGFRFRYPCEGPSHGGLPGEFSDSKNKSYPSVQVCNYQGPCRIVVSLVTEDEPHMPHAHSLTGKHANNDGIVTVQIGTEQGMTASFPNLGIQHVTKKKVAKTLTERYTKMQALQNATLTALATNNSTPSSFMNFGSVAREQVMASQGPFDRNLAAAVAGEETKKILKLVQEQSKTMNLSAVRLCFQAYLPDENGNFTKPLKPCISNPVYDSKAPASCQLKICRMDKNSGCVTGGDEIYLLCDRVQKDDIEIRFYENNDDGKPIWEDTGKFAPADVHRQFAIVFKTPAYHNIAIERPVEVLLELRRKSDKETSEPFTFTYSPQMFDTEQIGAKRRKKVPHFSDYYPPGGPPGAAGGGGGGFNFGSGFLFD
# [1] = target: T3, GST-Nv-NF-kB (Cys allele) (UniProt E5G601)
# T3 sequence: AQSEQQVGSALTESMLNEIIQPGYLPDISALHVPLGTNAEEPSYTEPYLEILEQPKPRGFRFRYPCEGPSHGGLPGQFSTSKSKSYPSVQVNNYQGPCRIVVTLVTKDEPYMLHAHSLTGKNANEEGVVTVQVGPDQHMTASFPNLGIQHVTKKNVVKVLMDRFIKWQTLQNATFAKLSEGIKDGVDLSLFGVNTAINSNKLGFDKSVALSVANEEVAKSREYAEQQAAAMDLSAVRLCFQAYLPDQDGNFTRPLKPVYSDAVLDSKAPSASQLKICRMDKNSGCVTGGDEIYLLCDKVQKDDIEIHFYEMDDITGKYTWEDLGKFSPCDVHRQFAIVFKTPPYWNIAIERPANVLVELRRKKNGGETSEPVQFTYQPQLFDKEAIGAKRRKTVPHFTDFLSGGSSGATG
Sequence,binding signal (GST-Aq-NF-kB) [z-score],binding signal (GST-Ap-NF-kB RHD) [z-score],binding signal [1] [z-score]
CCGATTAACATCAGGGGGTAACCTGATGTTAATCGGGTCTTGATTCGCTTGACGCTGCTG,5.48,–,–
CCGATTAACATCAGGACTTCCCATGATGTTAATCGGGTCTTGATTCGCTTGACGCTGCTG,4.72,–,–
CCGATTAACATCAGGGAATTTAATGATGTTAATCGGGTCTTGATTCGCTTGACGCTGCTG,5.09,–,–
CCGATTAACATCAAAATGTCCCCTGATGTTAATCGGGTCTTGATTCGCTTGACGCTGCTG,5.89,–,–
CCGATTAACATCACGGGGGGTACTGATGTTAATCGGGTCTTGATTCGCTTGACGCTGCTG,3.58,–,–
CCGATTAACATCAAGTACCCCCATGATGTTAATCGGGTCTTGATTCGCTTGACGCTGCTG,2.6,–,–
CCGATTAACATCACGGAAATCCCTGATGTTAATCGGGTCTTGATTCGCTTGACGCTGCTG,6.11,–,–
CCGATTAACATCAATACACCCCCTGATGTTAATCGGGTCTTGATTCGCTTGACGCTGCTG,3.5,–,–
CCGATTAACATCACCCATTTCCCTGATGTTAATCGGGTCTTGATTCGCTTGACGCTGCTG,2.52,–,–
CCGATTAACATCAGGGGACTCCATGATGTTAATCGGGTCTTGATTCGCTTGACGCTGCTG,4.63,–,–
CCGATTAACATCAGGTATTCCCATGATGTTAATCGGGTCTTGATTCGCTTGACGCTGCTG,4.66,–,–
CCGATTAACATCAAATTCCCAACTGATGTTAATCGGGTCTTGATTCGCTTGACGCTGCTG,2.22,–,–
CCGATTAACATCAAGAAGTCCCCTGATGTTAATCGGGTCTTGATTCGCTTGACGCTGCTG,6.79,–,–
CCGATTAACATCAAAGTTTTCCCTGATGTTAATCGGGTCTTGATTCGCTTGACGCTGCTG,4.93,–,–
CCGATTAACATCAGACAATCCCCTGATGTTAATCGGGTCTTGATTCGCTTGACGCTGCTG,5.98,–,–
CCGATTAACATCAAATAATCCCCTGATGTTAATCGGGTCTTGATTCGCTTGACGCTGCTG,7.75,–,–
CCGATTAACATCACGGGAAAATCTGATGTTAATCGGGTCTTGATTCGCTTGACGCTGCTG,5.16,–,–
CCGATTAACATCAAGGGAAAATATGATGTTAATCGGGTCTTGATTCGCTTGACGCTGCTG,4.44,–,–
CCGATTAACATCACGCCCCCCCCTGATGTTAATCGGGTCTTGATTCGCTTGACGCTGCTG,4.89,–,–
CCGATTAACATCAGAAATACCCATGATGTTAATCGGGTCTTGATTCGCTTGACGCTGCTG,4.73,–,–
CCGATTAACATCAGGGGGGTGAATGATGTTAATCGGGTCTTGATTCGCTTGACGCTGCTG,4.32,–,–
CCGATTAACATCAGGGGATTTGATGATGTTAATCGGGTCTTGATTCGCTTGACGCTGCTG,4.26,–,–
CCGATTAACATCAGAGCTTCCCCTGATGTTAATCGGGTCTTGATTCGCTTGACGCTGCTG,4.57,–,–
CCGATTAACATCAGGGAGGGTAATGATGTTAATCGGGTCTTGATTCGCTTGACGCTGCTG,2.39,–,–
CCGATTAACATCAAAGCATCCCCTGATGTTAATCGGGTCTTGATTCGCTTGACGCTGCTG,4.15,–,–
CCGATTAACATCAAATCCCCCCTTGATGTTAATCGGGTCTTGATTCGCTTGACGCTGCTG,6.8,–,–

Sequence,binding signal (GST-Aq-NF-kB) [z-score],binding signal (GST-Ap-NF-kB RHD) [z-score],binding signal [1] [z-score]
CCGATTAACATCAAATACCCCCATGATGTTAATCGGGTCTTGATTCGCTTGACGCTGCTG,4.48,–,–
CCGATTAACATCACAGAGTCCCCTGATGTTAATCGGGTCTTGATTCGCTTGACGCTGCTG,4.31,–,–
CCGATTAACATCAGACTTTCCCCTGATGTTAATCGGGTCTTGATTCGCTTGACGCTGCTG,6.81,–,–
CCGATTAACATCAACTCCCCCCCTGATGTTAATCGGGTCTTGATTCGCTTGACGCTGCTG,5.08,–,–
CCGATTAACATCAAGGGTTTCCCTGATGTTAATCGGGTCTTGATTCGCTTGACGCTGCTG,5.56,–,–
CCGATTAACATCAAAATTCCCTATGATGTTAATCGGGTCTTGATTCGCTTGACGCTGCTG,6.99,–,–
CCGATTAACATCAACCACCCCCTTGATGTTAATCGGGTCTTGATTCGCTTGACGCTGCTG,3.83,–,–
CCGATTAACATCAAGATACCCCCTGATGTTAATCGGGTCTTGATTCGCTTGACGCTGCTG,4.36,–,–
CCGATTAACATCACCAAAACCCCTGATGTTAATCGGGTCTTGATTCGCTTGACGCTGCTG,3.55,–,–
CCGATTAACATCAGGGAATTTTATGATGTTAATCGGGTCTTGATTCGCTTGACGCTGCTG,8.16,–,–
CCGATTAACATCAGGAATTTCCCTGATGTTAATCGGGTCTTGATTCGCTTGACGCTGCTG,10.8,–,–
CCGATTAACATCAGGGGACGTTATGATGTTAATCGGGTCTTGATTCGCTTGACGCTGCTG,4.72,–,–
CCGATTAACATCAAAATTTTCCCTGATGTTAATCGGGTCTTGATTCGCTTGACGCTGCTG,7.04,–,–
CCGATTAACATCAGATCCCCCCCTGATGTTAATCGGGTCTTGATTCGCTTGACGCTGCTG,5.39,8.16,–
CCGATTAACATCACAAGTTCCCCTGATGTTAATCGGGTCTTGATTCGCTTGACGCTGCTG,6.21,7.44,–
CCGATTAACATCAGGGGGATACCTGATGTTAATCGGGTCTTGATTCGCTTGACGCTGCTG,8.7,7.92,–
CCGATTAACATCAGGAAAAAAACTGATGTTAATCGGGTCTTGATTCGCTTGACGCTGCTG,0.525,-0.855,–
CCGATTAACATCAGGGGACTATATGATGTTAATCGGGTCTTGATTCGCTTGACGCTGCTG,4.61,5.4,–
CCGATTAACATCAGGGGAATTTATGATGTTAATCGGGTCTTGATTCGCTTGACGCTGCTG,8.72,9.91,11.9
CCGATTAACATCAGGGGGGTTTATGATGTTAATCGGGTCTTGATTCGCTTGACGCTGCTG,6.15,7.17,–
CCGATTAACATCAGGATTTTCCCTGATGTTAATCGGGTCTTGATTCGCTTGACGCTGCTG,8.92,5.75,–
CCGATTAACATCAGGGGGACTAATGATGTTAATCGGGTCTTGATTCGCTTGACGCTGCTG,4.27,5.06,4.36
CCGATTAACATCAAATTACCCCCTGATGTTAATCGGGTCTTGATTCGCTTGACGCTGCTG,5.57,6.8,–
CCGATTAACATCAAAACTTTCCCTGATGTTAATCGGGTCTTGATTCGCTTGACGCTGCTG,7.54,4.81,–
CCGATTAACATCAGGGGGATACATGATGTTAATCGGGTCTTGATTCGCTTGACGCTGCTG,4.35,5.54,–
CCGATTAACATCAGGGGAACCTATGATGTTAATCGGGTCTTGATTCGCTTGACGCTGCTG,4.46,6.11,–

Sequence,binding signal (GST-Aq-NF-kB) [z-score],binding signal (GST-Ap-NF-kB RHD) [z-score],binding signal [1] [z-score]
CCGATTAACATCAATCCACCCCCTGATGTTAATCGGGTCTTGATTCGCTTGACGCTGCTG,3.63,3.95,–
CCGATTAACATCAGGAGTTCCCCTGATGTTAATCGGGTCTTGATTCGCTTGACGCTGCTG,9.11,8.41,–
CCGATTAACATCAGGGGGTCACCTGATGTTAATCGGGTCTTGATTCGCTTGACGCTGCTG,4.39,3.61,2.23
CCGATTAACATCAAAAAATTCCGTGATGTTAATCGGGTCTTGATTCGCTTGACGCTGCTG,2.61,0.142,0.954
CCGATTAACATCAGAAGTTCCCCTGATGTTAATCGGGTCTTGATTCGCTTGACGCTGCTG,7.04,7.97,–
CCGATTAACATCACAACGACCCCTGATGTTAATCGGGTCTTGATTCGCTTGACGCTGCTG,2.48,2.27,–
CCGATTAACATCAAAAAACCCCGTGATGTTAATCGGGTCTTGATTCGCTTGACGCTGCTG,7.03,7.4,7.45
CCGATTAACATCAAGCCCCCCCATGATGTTAATCGGGTCTTGATTCGCTTGACGCTGCTG,3.85,4.83,–
CCGATTAACATCAGAGCTCCCCCTGATGTTAATCGGGTCTTGATTCGCTTGACGCTGCTG,3.98,5.05,4.31
CCGATTAACATCAGGGGAATACCTGATGTTAATCGGGTCTTGATTCGCTTGACGCTGCTG,10.5,9.84,11.8
CCGATTAACATCAGGGCGTCCCCTGATGTTAATCGGGTCTTGATTCGCTTGACGCTGCTG,7.89,6.5,–
CCGATTAACATCAAAATAGCCCCTGATGTTAATCGGGTCTTGATTCGCTTGACGCTGCTG,5.87,5.32,–
CCGATTAACATCAGGGGGAAGACTGATGTTAATCGGGTCTTGATTCGCTTGACGCTGCTG,5.25,5.87,–
CCGATTAACATCAGGACTCCCCCTGATGTTAATCGGGTCTTGATTCGCTTGACGCTGCTG,9.21,8.82,7.17
CCGATTAACATCAGGGGACATTATGATGTTAATCGGGTCTTGATTCGCTTGACGCTGCTG,4.62,5.74,–
CCGATTAACATCAGGAAACTCCCTGATGTTAATCGGGTCTTGATTCGCTTGACGCTGCTG,9.07,5.65,–
CCGATTAACATCAGGGGGTAGGATGATGTTAATCGGGTCTTGATTCGCTTGACGCTGCTG,2.89,4.15,–
CCGATTAACATCAGGAGCCCCCCTGATGTTAATCGGGTCTTGATTCGCTTGACGCTGCTG,5.04,5.02,–
CCGATTAACATCAAAGAAGCCCCTGATGTTAATCGGGTCTTGATTCGCTTGACGCTGCTG,5.13,4.38,–
CCGATTAACATCAGGGGGACAACTGATGTTAATCGGGTCTTGATTCGCTTGACGCTGCTG,4.24,5.19,–
CCGATTAACATCAAGAAATTCCCTGATGTTAATCGGGTCTTGATTCGCTTGACGCTGCTG,6.81,5.84,–
CCGATTAACATCAAAACTCCCCCTGATGTTAATCGGGTCTTGATTCGCTTGACGCTGCTG,7.6,9.31,–
CCGATTAACATCAGGGAATTACCTGATGTTAATCGGGTCTTGATTCGCTTGACGCTGCTG,9.49,8.44,–
CCGATTAACATCAGGGGAGACCCTGATGTTAATCGGGTCTTGATTCGCTTGACGCTGCTG,6.37,6.47,4.51
